{
  "source": "patent US20250388684A1",
  "about": "(SICHUAN SWIFTBIO BIOTECHNOLOGY, published 2025)",
  "key": {"[1]": {"target": "T1, human CCR8 (C-C chemokine receptor type 8) (human, UniProt P51685 1-355)", "T1 construct": "whole, on cells; also called h.CCR8; HEK293T-h.CCR8", "T1 sequence (P51685 whole entry)": "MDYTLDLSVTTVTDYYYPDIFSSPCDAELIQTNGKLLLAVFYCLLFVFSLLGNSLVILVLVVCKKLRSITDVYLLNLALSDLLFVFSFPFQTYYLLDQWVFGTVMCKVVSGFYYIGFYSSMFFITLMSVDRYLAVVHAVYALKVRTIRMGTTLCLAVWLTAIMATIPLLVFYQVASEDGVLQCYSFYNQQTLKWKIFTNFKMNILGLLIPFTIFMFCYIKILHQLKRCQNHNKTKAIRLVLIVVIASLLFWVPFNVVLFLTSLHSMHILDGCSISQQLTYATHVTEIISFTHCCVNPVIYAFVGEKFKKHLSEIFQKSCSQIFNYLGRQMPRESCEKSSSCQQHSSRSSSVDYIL", "assay": "FACS on HEK293T-h.CCR8 cells, test 2 (anti-human Alexa Fluor 647 secondary antibody)", "protocol": "(§1) The affinity of humanized monoclonal antibodies against human CCR8 was assessed using FACS. The experimental procedure was as follows: HEK293T-h.CCR8 cells were digested and collected by centrifugation, followed by three washes with pre-cooled PBS. The cells were resuspended in 1% BSA (in PBS), with 3×10\\hat{ }5 cells added to each well of a 96-well V-bottom plate (50 μL per well). Prepare the antibody dilution series in 1% BSA (in PBS), starting from 40 μg/mL. Perform a 3-fold serial dilution across 10 concentration points. Add 50 μL per well to the cells, so that the final antibody concentration in the wells starts from 20 μg/mL. Mix thoroughly and incubate at 4° C. for 1 hour. The cells were collected by centrifugation, washed three times with pre-cooled PBS, resuspended in 50 μL 1% BSA (in PBS), and 1 μL of fluorescent secondary antibody (Biolegend, Catalog No.: 410708) was added to each well. The mixture was incubated at 4° C. for 30 minutes, followed by three washes with pre-cooled PBS. The cells were then resuspended in 200 μL PBS for detection."}, "[2]": {"target": "T1, human CCR8 (C-C chemokine receptor type …)", "assay": "cell-based or functional assay"}, "human CCR4": {"target": "T2, human CCR4 (human, UniProt P51679 1-360)", "T2 construct": "whole, on cells; also called h.CCR4; HEK293T-h.CCR4", "T2 sequence (looked up)": "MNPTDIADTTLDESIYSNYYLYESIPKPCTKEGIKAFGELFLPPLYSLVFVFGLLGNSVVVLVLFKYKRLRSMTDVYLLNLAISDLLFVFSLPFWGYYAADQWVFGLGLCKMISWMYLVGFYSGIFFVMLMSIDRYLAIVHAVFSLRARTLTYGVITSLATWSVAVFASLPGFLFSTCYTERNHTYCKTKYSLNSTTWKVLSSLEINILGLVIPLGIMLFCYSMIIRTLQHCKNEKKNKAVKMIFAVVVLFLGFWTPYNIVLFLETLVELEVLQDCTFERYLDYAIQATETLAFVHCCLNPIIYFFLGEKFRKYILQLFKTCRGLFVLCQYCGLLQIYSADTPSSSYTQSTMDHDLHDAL", "assay": "FACS on HEK293T-h.CCR4 cells", "protocol": "The specificity of humanized monoclonal antibodies against human CCR4 was assessed using FACS. HEK293T-h.CCR4 cells were collected, washed, and resuspended in 1% BSA (in PBS). Each well of a 96-well V-bottom plate received 3×10\\hat{ }5 cells, followed by the addition of the test antibodies at a final concentration of 20 μg/mL and incubation at 4° C. for one hour. After washing, 1 μL of fluorescent secondary antibody (Biolegend, Catalog No.: 410708) was added, and the mixture was incubated. The cells were washed and resuspended for detection using a flow cytometer (Beckman, Model: CytoFLEX)."}, "[3]": {"target": "T1, human CCR8 (C-C chemokine receptor type …)", "assay": "FACS on HEK293T-h.CCR8 cells, test 1", "protocol": "as §1"}, "cynomolgus monkey CCR8": {"target": "T3, cynomolgus monkey CCR8 (cynomolgus monkey, UniProt G7NYJ2 1-355)", "T3 construct": "whole, on cells; also called c.CCR8; HEK293T-c.CCR8", "assay": "FACS on HEK293T-c.CCR8 cells"}},
  "data": [
    {"binder": "13F3H6-hz (humanized anti-human CCR8 monoclonal antibody, human IgG1) (antibody, Copies of 2 follow from the IgG1 format) heavy: EVQLVESGGGLVQPGESLRLSCAASGFTFNAYAMNWVRQAPGQGLEWVARIRTKSNNYATYYADSVKGRFTISRDDSKNTLYLEMNSLRAEDTAVYYCVRHKKVREGYAMDYWGQGTLVTVSS[left out - human IgG1 constant region] light: DIVLTQSPASLVLSLGQRATISCRASKSVSTSGYTYMHWYQQKPGQPPKLLIYLASNLESGVPARFSGSGSGTDFTLNIHPVEEEDAATYYCQHSRELPFTFGSGTKLEIKRTVAAPSVFIFPPSDEQLKSGTASVVCLLNNFYPREAKVQWKVDNALQSGNSQESVTEQDSKDSTYSLSSTLTLSKADYEKHKVYACEVTHQGLSSPVTKSFNRGEC", "values": [
      {"measurement": "EC50", "setting": "[1]", "result": 0.0203, "unit": "µg/mL"},
      {"measurement": "ADCC activity EC50", "setting": "[2]", "result": 9.77, "unit": "ng/mL"},
      {"measurement": "ADCP activity EC50", "setting": "[2]", "result": 112, "unit": "ng/mL"},
      {"measurement": "Inhibition rate of CCL1-mediated cell migration (%) at 50 µg/mL, BaF3-h.CCR8 cells, Transwell", "setting": "[2]", "result": 68, "unit": "%"},
      {"measurement": "binding result", "setting": "human CCR4", "result": "no binding (tested: 20 µg/mL)"},
      {"measurement": "EC50", "setting": "[3]", "result": 0.104, "unit": "µg/mL"},
      {"measurement": "EC50", "setting": "cynomolgus monkey CCR8", "result": 0.221, "unit": "µg/mL"}
    ]}
  ]
}
